{
  "source": "the supplement of paper PMC7826260",
  "note": "This is one part of the list. The data describe in vitro nicking of single-stranded DNA by Rep domains at 3 µM enzyme and 37 °C for 1 h; the strands have 90 letters, of which the middle is given. Values are log2 of uncut reads against the no-enzyme pool; strong cutting gives strongly negative numbers. There is no active / inactive call. The scaling is to total reads; uncut strands gain when others are lost, and binding without cutting may add a little.",
  "data": [
    {"system": "T1, Rep nickase domain of tomato golden mosaic virus", "T1 sequence (residues 1-124, tag not shown)": "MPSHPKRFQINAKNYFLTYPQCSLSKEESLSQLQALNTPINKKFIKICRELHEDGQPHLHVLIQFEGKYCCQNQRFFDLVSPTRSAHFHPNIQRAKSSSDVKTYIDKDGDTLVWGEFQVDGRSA", "assay": "uncleaved DNA left, log2 of reads against the no-enzyme library (log2 ratio); higher = less cleavage (more negative = more Rep cleavage of the k-mer); sequences stand for … in CTCGTCCG…ACCGGAGA", "protocol": "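A pool of 90-nt single-stranded DNAs with seven random bases just before the constant AC of the nick site (name = the seven bases) was cut by 3 µM recombinant His6-SUMO-tagged Rep nickase domain (300 nM DNA, 50 mM HEPES pH 8.0, 50 mM NaCl, 1 mM MnCl2, 1 h, 37 °C, three replicates). Uncut DNA was amplified and sequenced.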", "values": [
      {"sequence": "TGCCCTA", "uncleaved DNA left (log2)": -0.0858},
      {"sequence": "CAACCCG", "uncleaved DNA left (log2)": -0.0656},
      {"sequence": "GTATGAA", "uncleaved DNA left (log2)": 0.0712},
      {"sequence": "AGCTAGC", "uncleaved DNA left (log2)": 0.000858},
      {"sequence": "GATCGGG", "uncleaved DNA left (log2)": 0.0957},
      {"sequence": "GAATTTG", "uncleaved DNA left (log2)": -0.0457},
      {"sequence": "GTGGATA", "uncleaved DNA left (log2)": 0.0297},
      {"sequence": "CGGCTAG", "uncleaved DNA left (log2)": 0.187},
      {"sequence": "TGCCGAC", "uncleaved DNA left (log2)": -0.0863},
      {"sequence": "TTACTTA", "uncleaved DNA left (log2)": 0.0955},
      {"sequence": "ACAATTG", "uncleaved DNA left (log2)": 0.0755},
      {"sequence": "AAAGCGA", "uncleaved DNA left (log2)": -0.00575},
      {"sequence": "CCTCCAT", "uncleaved DNA left (log2)": -0.0351},
      {"sequence": "CTTGATT", "uncleaved DNA left (log2)": -0.124},
      {"sequence": "GAGTCTA", "uncleaved DNA left (log2)": 0.0489},
      {"sequence": "ATCCGAC", "uncleaved DNA left (log2)": -0.204},
      {"sequence": "TTTAGTA", "uncleaved DNA left (log2)": "6.4e-05"},
      {"sequence": "AACACTC", "uncleaved DNA left (log2)": 0.0795},
      {"sequence": "TGCTCAG", "uncleaved DNA left (log2)": 0.01},
      {"sequence": "GTAGTTA", "uncleaved DNA left (log2)": 0.0241},
      {"sequence": "GAGCACC", "uncleaved DNA left (log2)": -0.0603},
      {"sequence": "AAGCTAA", "uncleaved DNA left (log2)": 0.0752},
      {"sequence": "GAATAAT", "uncleaved DNA left (log2)": -2.81},
      {"sequence": "GCACTGC", "uncleaved DNA left (log2)": 0.0779},
      {"sequence": "GTCGATC", "uncleaved DNA left (log2)": -0.127},
      {"sequence": "GGCAAGA", "uncleaved DNA left (log2)": 0.0408},
      {"sequence": "GAGCGAG", "uncleaved DNA left (log2)": 0.0753},
      {"sequence": "ACTTAGG", "uncleaved DNA left (log2)": 0.137},
      {"sequence": "GGTCATT", "uncleaved DNA left (log2)": -0.16},
      {"sequence": "GAGTCGC", "uncleaved DNA left (log2)": -0.0398},
      {"sequence": "AAGAGAT", "uncleaved DNA left (log2)": 0.0697},
      {"sequence": "AAGTATC", "uncleaved DNA left (log2)": 0.0653},
      {"sequence": "GGGATTT", "uncleaved DNA left (log2)": -0.0636},
      {"sequence": "AGGAGAT", "uncleaved DNA left (log2)": 0.168},
      {"sequence": "ATTGACA", "uncleaved DNA left (log2)": 0.0379},
      {"sequence": "GAGCCAG", "uncleaved DNA left (log2)": 0.0672},
      {"sequence": "ATTAGTA", "uncleaved DNA left (log2)": 0.107},
      {"sequence": "CGCTTAG", "uncleaved DNA left (log2)": 0.143},
      {"sequence": "ATATTTA", "uncleaved DNA left (log2)": 0.0159},
      {"sequence": "GGATGAC", "uncleaved DNA left (log2)": 0.0149}
    ]}
  ]
}
